From PubChem BioAssay AID1508624 (National Center for Advancing Translational Sciences (NCATS), 2021)
About 120 (0.25%) of roughly 48,000 compounds were called active. About 4% were inconclusive and are not listed. The call rests on the fitted dose curve; in most records, active means well fitted activation curve with a large enough effect; inconclusive means small, poorly fitted or top-dose-only effect, or another doubt; inactive means no such curve, though single readings can be large or run the other way. The list shows a part of the results.

Experiment: Primary qHTS for Identification of Small Molecule Activators of Huntingtin-Antisense Promoter Activity; further: nearly all actives have a fitted effect of over 55% in size
Conditions: HEK293 HTT-AS promoter firefly luciferase reporter, 24 h; series mostly up to 57.5 µM; activity change, positive = activation: at the top concentration
In short: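 HEK293 cells carrying firefly luciferase reporters were seeded at 2,500 per well in Opti-MEM and cultured for 24 h. They were then treated with compounds at up to 57.5 uM final for 24 h at 37 degrees C before Dual-Glo luminescence readout.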

Activity change, positive = activation, inactive:
CCc1ccc(C(=O)CC2(O)C(=O)N(CCc3ccccc3)c3ccc(Br)cc32)cc1 (stereo unspecified) -34.4%
CCc1c(C)sc2c1CCN(Cc1cccc(OC)c1)C2c1ccccc1 (stereo unspecified) -32.2%
CCCCN(CCCC)CCNC(=O)Cn1nc(CC)n2c(cc3sccc32)c1=O -3.27%
CCC1=Nc2cc(C(=O)NCCc3ccc(OC)c(OC)c3)ccc2Sc2ccccc21 -38%
COC(=O)c1ccc(Cl)cc1NC(=O)Nc1nnc(N(C)C2CCCCC2)s1 -14.1%
CCc1ccccc1S(=O)(=O)Cc1ccc(C(=O)NCc2ccc(Cl)cc2)o1 -40.8%
Cc1ccc(CNC(=O)C(NS(=O)(=O)c2cccs2)C(C)C)cc1 (stereo unspecified) -11.1%
COc1ccc(CCC(=O)NCc2ccc3c(c2)CCN3C(=O)c2ccc(Cl)cc2)cc1 -0.663%
Cc1ccc(CSC2=Nc3ccccc3C3=NC(CCC(=O)NC4CCCCC4)C(=O)N23)cc1 (stereo unspecified) -15.5%
CC(=O)c1cccc(NC(=O)CSc2nc3c(c(=O)[nH]2)CCC3)c1 -5.8%
Cc1ccc(CN(Cc2ccco2)C(=O)c2ccc(Cl)cc2Cl)cc1 -31.9%
COc1ccc(CCNC(=O)Cn2nnc(-c3ccc(Cl)cc3)n2)cc1OC -5.24%
Cc1cccc(NC(=O)CSc2ncc(-c3ccc(Br)cc3)[nH]2)c1 -11%
O=C(CSc1ccc(-c2cccs2)nn1)Nc1ccccc1 1.23%
Cc1cccc(-c2nc(CCNC(=O)COc3ccccc3)cs2)c1 -8.22%
CCN1CCc2nc(N)oc2CC1 -11%
CC(=O)c1cccc(NC(=O)Nc2c(C)n(C)n(-c3ccccc3)c2=O)c1 -24.3%
COc1ccc(-c2cc(-c3ccccc3)nc(SCC(=O)Nc3ccccc3C)c2C#N)cc1 -2.86%
CCOCCCn1c(SCC(=O)Nc2cc(C)ccc2C)nc2c(oc3ccccc32)c1=O -6.89%
COC(=O)c1ccc(NC(=O)CN2CCCN(Cc3ccc(Cl)cc3)S2(=O)=O)cc1 -32.4%
Cc1ccc(-c2nc3cc(NC(=O)c4cc5ccccc5o4)ccc3o2)cc1Cl 9.12%
CCN1CCc2c(sc(NC(=O)c3ccc(S(=O)(=O)N(CCOC)CCOC)cc3)c2C(N)=O)C1 -4.5%
CN(C)CCNC(=O)c1ccc(-n2c(-c3ccccc3)cc3c2CCCCC3)cc1 6.52%
CC(C)Oc1ccc(CN2CCc3nc(Nc4ccc5c(c4)OCCO5)ncc3C2)cc1 -13.2%
Cc1ccc(Sc2c(C(=O)NCc3cccc(F)c3)[nH]c3ccccc23)cc1 0.874%
CC(NC(=O)CN1C(=O)COc2ccc(S(=O)(=O)N3CCCCCC3)cc21)c1ccccc1 (stereo unspecified) -18.4%
CCCCCCCCCCCCCC[N+](C)(C)C -27.4%
COc1ccc(CC(=O)NCCS(=O)(=O)N2CCN(c3ccccc3F)CC2)cc1OC -22.7%
Cc1ccc(C(=O)Nc2ccccc2C(=O)OCc2cc(=O)n3nc(C(C)C)sc3n2)cc1 4.41%
Cc1ccc(Cl)cc1N1CCN(CCCNC(=O)Cn2ncc3c([nH]c4ccccc43)c2=O)CC1 -0.751%
Cc1ccc(C)c(NC(=O)CN(C)S(=O)(=O)c2cccc3cccnc23)c1 -14.7%
Cc1ccc(C)c(NC(=O)CSc2nc(-c3ccccc3)c(C#N)c(=O)[nH]2)c1 -11.8%
COC(=O)c1ccccc1NC(=O)C1=CC(c2ccc3c(c2)OCO3)=NS(=O)(=O)N1C -3.45%
Cc1ccc(CNc2nc3ccc(Cl)cc3n3cnnc23)cc1 -3.72%
COc1ccc(S(=O)(=O)c2c(Nc3c(C)cccc3C)sc(C(=O)c3ccc(F)cc3)c2N)cc1 -44.1%
CCc1cccc(C)c1Nc1c(-c2ccc(SC)cc2)nc2sccn12 28.8%
O=C(CC1N=C2c3ccccc3N=C(SCc3ccc(F)cc3)N2C1=O)NC1CCCCC1 (stereo unspecified) -49.9%
Fc1ccc(-c2noc3ncnc(Nc4ccc(F)cc4F)c23)cc1 0%
Cc1cccc(NC(=O)Cn2c(=O)n(Cc3ccccc3)c(=O)c3sc4ccccc4c32)c1 -27.7%
CCOc1ccc(N(C(=O)c2ccc(Cl)cc2)S(=O)(=O)c2ccc3c(c2)n(C)c(=O)n3C)cc1 -14.8%
CCOc1ccc(CCNC(=O)c2cccc(Nc3nc4ccccc4nc3-n3nc(C)cc3C)c2)cc1OCC 12.7%
Cc1ccc(-n2nc3c(N4CCC(C(=O)NC5CCC(C)CC5)CC4)nnc(C)c3c2C)cc1 (stereo unspecified) -12.2%
O=C(CCCCCCC(=O)Nc1ccc([C@H]2O[C@@H](CSc3nc(-c4ccccc4)c(-c4ccccc4)o3)C[C@@H](c3ccc(CO)cc3)O2)cc1)NO -6.29%
CCC(=O)Oc1cc(C(C)(C)C)cc2cc(-c3nc(-c4ccc(OC)cc4OC)no3)c(=O)oc12 -4.6%
CCOc1ccc(N(CC(=O)Nc2cc(OC)cc(OC)c2)S(=O)(=O)c2c(C)[nH]c(=O)[nH]c2=O)cc1 -6.03%
CC1=C(C(N)=O)C(c2cccc(O)c2)n2ncnc2N1 (stereo unspecified) -2.95%
O=C(c1cccs1)c1cn(CCOc2ccc(Cl)cc2)c2ccccc12 -35.3%
COc1ccc(Cl)cc1NC(=O)Cn1c(=O)oc2cc(S(=O)(=O)N3CCCCCC3)ccc21 -21.5%
Cc1ccc2sc(N(Cc3cccnc3)C(=O)Cc3ccccc3)nc2c1C -24.2%
Cc1ccc(C(=O)c2cn(Cc3ccccc3F)c3cc4c(cc3c2=O)OCCO4)cc1 10.5%
C[N+](C)(C)CCOC(=O)CCC(=O)OCC[N+](C)(C)C -1.54%
COc1ccc(OC)c(NC(=O)CSC2=Nc3ccccc3C3=NC(CCC(=O)NCc4ccccc4)C(=O)N23)c1 (stereo unspecified) 6.81%
O=C(COc1ccc(Cl)cc1)N(Cc1ccco1)Cc1ccco1 -34.8%
Cc1c(C(=O)N(C)C)sc2c1c(=O)n(-c1ccc(Cl)c(Cl)c1)c(=O)n2CC(=O)C(C)(C)C 3.11%
COc1ccccc1CNC(=O)CCC(=O)N1CC(C)Sc2ccccc21 (stereo unspecified) -23.9%
Cc1cccc(N2CCN(C(=O)CN3C(=O)COc4ccc(S(=O)(=O)N5CCC(C)CC5)cc43)CC2)c1C -18.4%
O=S(=O)(Nc1cccc(C(F)(F)F)c1)c1ccc(NS(=O)(=O)c2ccc3c(c2)OCCO3)cc1 -39.7%
Cc1ccc(NC(=O)CSc2nc3ccccc3n2CC(=O)N2CCC(C)CC2)cc1C -19.6%
Cc1csc2nc(COC(=O)c3cccc(NC(=O)c4cccc(Cl)c4)c3)cc(=O)n12 -15.7%
CCc1nn(CC(=O)N2CCC(C)CC2)c(=O)c2cc3occc3n12 -2.09%
CCCN(c1ccc(C(C)C)cc1)S(=O)(=O)c1ccc2c(c1)n(C)c(=O)c(=O)n2C -9%
CN(C)C1(CNC(=O)COc2ccc([N+](=O)[O-])cc2)CCCCC1 -12.8%
CCC1CN(C(=O)N2CCC(C(=O)NCCc3cc(OC)ccc3OC)CC2)c2ccccc2O1 (stereo unspecified) -28.3%
CCN(CC)S(=O)(=O)c1ccc2c(c1)N(CC(=O)N1CCN(c3cccc(Cl)c3)CC1)C(=O)CO2 -21.5%
CCn1c(CN2CCOCC2)nc2cc(NC(=O)c3ccccc3[N+](=O)[O-])ccc21 17.9%
CC(C)Oc1ccc(CNC(=O)c2ccc(CS(=O)c3cccc(Cl)c3)o2)cc1 (stereo unspecified) -27.9%
COc1ccccc1N1CCN(C(=O)Cn2ncc3ccsc3c2=O)CC1 -4.91%
COc1cccc(-n2cc(C(=O)Nc3cccc(C(F)(F)F)c3)c3ccccc3c2=O)c1 -29.1%
Cc1ccc(NC(=O)N2CCc3cc(S(=O)(=O)N4CCC(C)CC4)ccc32)cc1 -12.4%
CCN(C(=O)Cn1c(=O)n(CCCS(=O)(=O)C2CCCCC2)c(=O)c2ccccc21)c1cccc(C)c1 -11.4%
Cc1ccc(Cl)cc1Nc1nn2c(=O)c3ccc(C(=O)Nc4ccc(F)cc4)cc3nc2s1 -0.409%
Cc1cc(Cl)ccc1NC(=O)Cn1nc(C)c2c(C)n(-c3ccccc3)nc2c1=O -23.5%
COc1cccc(C2c3c(oc4cc(C)cc(C)c4c3=O)C(=O)N2CCc2ccc(OC)c(OC)c2)c1 (stereo unspecified) -3.76%
COc1ccc(NC(=O)CCS(=O)(=O)c2nc(-c3cccs3)cc(C(F)(F)F)n2)cc1 -56.1%
CCn1c(SCc2ccccc2C)nc(=O)c2c(C(=O)OC)cc(C3CC3)nc21 -36.9%
COc1ccccc1CNC(=O)CCC1N=C2c3ccccc3N=C(SCC(=O)Nc3ccc(F)cc3)N2C1=O (stereo unspecified) 4.72%
Cc1ccc2c(c1)c1c(c(=O)n(-c3cccc(Cl)c3)c(=O)n1CC(=O)NCCC1=CCCCC1)n2C -11.4%
CN(CC(=O)NCc1ccc(Cl)cc1)S(=O)(=O)c1ccc2[nH]c3c(c2c1)CCCC3 -27.6%
COc1ccc(CNc2nc(-c3ccccc3)nn2S(=O)(=O)c2ccccc2)cc1 25.2%
O=C(Nc1nnc(-c2cc(Cl)ccc2Cl)o1)c1ccc2c(c1)OCCO2 -0.409%
CCOC(=O)C1CCC(CN(Cc2ccc(OC)cc2)S(=O)(=O)c2ccc(F)c(C(=O)Nc3ccc(C)c(C)c3)c2)CC1 (stereo unspecified) -7.12%
COc1ccc(-n2c(Cc3ccccc3)nnc2SCc2nc(-c3cccs3)no2)cc1 -24.4%
O=c1cc(CSc2ncn[nH]2)[nH]c2ccc(F)cc12 2.16%
CCN(c1ccccc1)S(=O)(=O)c1cc(Br)cc2c1N(C(=O)C1CC1)CC2 -36.6%
Cc1ccc(C(=O)N2CCc3cc(CNC(=O)CSc4ccccc4)ccc32)cc1 -24.8%
Cc1ccc(-c2cc(C(=O)NCc3cnn(C)c3C)c3ccccc3n2)cc1C 22.7%
Cc1cccc(-c2c3c(=O)n(C)c(=O)n(C)c3c3c(C)nc4ccccc4n23)c1 -2.81% [at 11.5 µM, percent change from vehicle, -100% = no light]
N#Cc1ccc(S(=O)(=O)N2CCC(Oc3cccc(C(F)(F)F)c3)CC2)cc1 -37.7%
CCCNC(=O)C1=CC(c2ccc3c(c2)OCO3)=NS(=O)(=O)N1C -16.4%
COc1cc(OC)c(OC)cc1CN1CCc2nc(Nc3ccc4c(c3)OCCO4)ncc2C1 -3.84%
COc1ccc(CNC(=O)C(=O)Nc2c3c(nn2-c2ccccc2)CSC3)cc1 -18.8%
